{
  "source": "PubChem BioAssay AID686979",
  "about": "(National Center for Advancing Translational Sciences (NCATS), 2013)",
  "note": "About 50,000 (12%) of roughly 420,000 compounds were called active. This list was built around the results that the source calls inconclusive (neither active nor inactive); the mix of calls is not that of the screen. Calls follow the shape of the dose curve; as a rule, active = well fitted inhibition curve with a large enough effect; inconclusive = small, poorly fitted or top-dose-only effect; inactive = flat fitted curve, though single readings scatter. Potencies of inconclusive entries are left out as doubtful fits. Potency is read from the fitted curve at half-maximal effect; tags tell the direction and shape of the fitted curve.",
  "data": [
    {"experiment": "qHTS for Inhibitors of human tyrosyl-DNA phosphodiesterase 1 (TDP1): qHTS in cells in presence of CPT; also: nearly all actives have a fitted effect of over 55% in size", "conditions": "chicken DT40 Tdp1-/-;hTDP1 cells + 20 nM CPT, ATP luminescence, 48 h; series mostly up to 46.2 µM", "outline": "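Cell growth measured by CellTiter-Glo luminescence after a minimum 48 h, 37 C compound exposure with 20 nM CPT in Tdp1-knockout DT40 cells stably expressing hTDP1, seeded 400/well; qHTS titration format.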", "values": [
      {"smiles": "CCc1cc(=O)[nH]c(SCc2nc(-c3cccc(Cl)c3)no2)n1", "Potency": "active: 18.4 µM"},
      {"smiles": "CCn1c(=O)c2c(nc(SCC(=O)NC3CCCC3)n2C)n(C)c1=O", "Potency": "inconclusive [inhibitor, single point]"},
      {"smiles": "O=C(Nc1ccc(Cl)cc1)c1ccc(-n2cnnc2)cc1", "Potency": "inactive"},
      {"smiles": "Cc1cccc(N2CCN(C(=O)c3cccn4c(=O)c5c(C)c(C)sc5nc34)CC2)c1C", "Potency": "inconclusive [inhibitor, single point]"},
      {"smiles": "COc1ccc(CCn2c(=N)c(C(=O)NC3CCCC3)cc3c(=O)n4ccccc4nc32)cc1", "Potency": "active: 4.11 µM"},
      {"smiles": "Clc1ccc(CN2CCSCC2)c(Cl)c1", "Potency": "inactive"},
      {"smiles": "Oc1ccc(N2CCN(C(c3cccs3)c3nnnn3CCc3ccccc3)CC2)cc1", "note": "(stereo not given)", "Potency": "inconclusive [inhibitor, single point]"},
      {"smiles": "COCCCNC(=O)CN1C(=O)/C(=C/c2ccccc2)Sc2ccccc21", "Potency": "inconclusive [inhibitor, single point]"},
      {"smiles": "COc1ccc(-c2nnc(SCC(=O)c3ccc[nH]3)o2)cc1", "Potency": "inactive"},
      {"smiles": "COc1ccc(CN(C)C(=O)/C=C/c2ccc(S(=O)(=O)N3CCCCCC3)cc2)cc1", "Potency": "inconclusive [inhibitor, single point]"},
      {"smiles": "CC(NC(=O)C(C)N1C(=O)c2cccc([N+](=O)[O-])c2C1=O)c1ccccc1", "note": "(stereo not given)", "Potency": "inconclusive [inhibitor, single point]"},
      {"smiles": "COc1ccc(-n2nnnc2-c2cnc(N3CCCC3)nc2C(F)(F)F)cc1", "Potency": "active: 8.2 µM"},
      {"smiles": "Cc1ccc(C)c(/C=N/Nc2nc3ccccc3c(=O)n2O)c1", "Potency": "inconclusive [inhibitor, single point]"},
      {"smiles": "CCN1CCCn2c1nc1c2c(=O)n(C)c(=O)n1C", "Potency": "inconclusive [inhibitor, partial curve, poor fit]"},
      {"smiles": "CC(Sc1nnc(-c2cccs2)n1-c1ccccc1)C(=O)NCc1ccco1", "note": "(stereo not given)", "Potency": "inconclusive [inhibitor, single point]"},
      {"smiles": "O=C(COC(=O)Cc1n[nH]c(=O)c2ccccc12)Nc1ncc(Cl)cc1Cl", "Potency": "inconclusive [inhibitor, single point]"},
      {"smiles": "CC1CCC2(CC1)NC(=O)N(NC(=O)c1ccc(OC(C)C)cc1)C2=O", "note": "(stereo not given)", "Potency": "inconclusive [inhibitor, single point]"},
      {"smiles": "Cc1ccc(C(=O)NCc2ccc3c(c2)OCO3)cc1C", "Potency": "inactive"},
      {"smiles": "Cc1ccc(NC(=S)Nc2ccccn2)c(C)c1", "Potency": "active: 3.66 µM"},
      {"smiles": "CCOC(=O)N1CCN(Cc2nc3cc(NC(=O)C(C)C)ccc3n2CC)CC1", "Potency": "inactive"},
      {"smiles": "C/C(=N/NC(=O)c1cccs1)c1ccc(NC(=O)COc2ccc(Cl)cc2Cl)cc1", "Potency": "active: 14.6 µM"},
      {"smiles": "Cc1ccc(CSc2nnc(CC(=O)Nc3ccc(C)cc3)n2C)cc1", "Potency": "inconclusive [inhibitor, single point]"},
      {"smiles": "COc1ccc(CN(C)C(=O)COC(=O)c2c(-c3ccccc3Cl)noc2C)cc1", "Potency": "inconclusive [inhibitor, partial curve]"},
      {"smiles": "CC(C)OC(=O)C(C#N)c1nc2ccccc2nc1N1CCN(Cc2ccccc2)CC1", "note": "(stereo not given)", "Potency": "active: 23.1 µM"},
      {"smiles": "CCN(CC)C(=O)COc1ccc2c(-c3ccc(OC)cc3)cc(=O)oc2c1", "Potency": "inconclusive [inhibitor, single point]"},
      {"smiles": "CC(=O)Nc1ccccc1OCc1nnc(-c2ccc(Cl)cc2)o1", "Potency": "inactive"},
      {"smiles": "COc1cccc(NC(=O)[C@H](Cc2c[nH]c3ccccc23)NC(=O)[C@@H]2Cc3ccccc3CN2)c1", "Potency": "inconclusive [inhibitor, single point]"},
      {"smiles": "CC(NC(=S)Nc1ccc(Cl)cc1)C(c1ccccc1)N1CCOCC1", "note": "(stereo not given)", "Potency": "inconclusive [inhibitor, partial curve]"},
      {"smiles": "Cc1cc(C)n(CCC(=O)N/N=C/c2c(O)ccc3ccccc23)n1", "Potency": "active: 5.8 µM"},
      {"smiles": "COc1ccc(C(=O)N(Cc2sccc2C)C2CCS(=O)(=O)C2)cc1", "note": "(stereo not given)", "Potency": "inactive"},
      {"smiles": "Cc1ccccc1Cn1c(=O)c2c(nc3n2CCCN3Cc2ccccc2)n(C)c1=O", "Potency": "active: 20.6 µM"},
      {"smiles": "CN1CCN(c2cc(-c3ccccc3)nc3cc(-c4ccc(F)cc4)nn23)CC1", "Potency": "active: 4.11 µM"},
      {"smiles": "Cc1ccnc2nc(C(=O)Nc3ccc(N4CCOCC4)cc3)nn12", "Potency": "inconclusive [inhibitor, partial curve]"},
      {"smiles": "CCc1ccc(NCc2ccc(OC)c(Cn3ccnc3)c2)cc1", "Potency": "inconclusive [inhibitor, single point]"},
      {"smiles": "CCn1c(=O)c(C(=O)Nc2nc3ccccc3[nH]2)c(O)c2ccccc21", "Potency": "active: 2.91 µM"},
      {"smiles": "Cc1ccc(S(=O)(=O)Nc2ccccc2CNc2ncc(Br)cc2Br)cc1", "Potency": "inconclusive [inhibitor, single point]"},
      {"smiles": "Cc1ccccc1OCCCN1CCCC1", "Potency": "inactive"},
      {"smiles": "CNC(=O)C1CN(C(=O)c2cccc(S(=O)(=O)N3c4ccccc4CC3C)c2)c2ccccc2O1", "note": "(stereo not given)", "Potency": "inconclusive [inhibitor, single point]"},
      {"smiles": "O=C(O)c1ccc(Nc2nc(-c3ccc([N+](=O)[O-])cc3)nc3ccccc23)cc1", "Potency": "inconclusive [inhibitor, single point]"},
      {"smiles": "O=C(CSc1nc(N2CCOCC2)nc(N2CCOCC2)n1)Nc1ccc(Cl)cc1Cl", "Potency": "inconclusive [inhibitor, partial curve]"},
      {"smiles": "Cc1ccc(-n2ncc(C(=O)NCCN3CCN(C)CC3)c2C2CCN(C(=O)OC(C)(C)C)CC2)cc1", "Potency": "inconclusive [inhibitor, single point]"},
      {"smiles": "C[C@H]1CN([C@@H](C)CO)C(=O)CCCn2cc(nn2)CO[C@@H]1CN(C)S(=O)(=O)c1ccc(Cl)cc1", "Potency": "inactive"},
      {"smiles": "O=C(NCCN1CCC(n2c(=O)[nH]c3ccccc32)CC1)C(c1ccccc1)c1ccccc1", "Potency": "active: 16.4 µM"},
      {"smiles": "COc1ccc(-n2cc(-c3ccccc3)c3c(=S)nc[nH]c32)cc1", "Potency": "inconclusive [inhibitor, single point]"},
      {"smiles": "COCC(=O)N/N=C(\\C)CC(=O)NCc1ccco1", "Potency": "inactive"},
      {"smiles": "O=C(NC(NC(=S)Nc1ccccc1Cl)C(Cl)(Cl)Cl)c1cccc(Cl)c1", "note": "(stereo not given)", "Potency": "active: 4.61 µM"},
      {"smiles": "CN1CCN(C(c2ccc(C(F)(F)F)cc2)c2ccc3cccnc3c2O)CC1", "note": "(stereo not given)", "Potency": "active: 8.2 µM"},
      {"smiles": "Cc1ccc(CNC(=O)Cn2cccc2)cc1", "Potency": "inactive"},
      {"smiles": "COc1ccc(OC)c(-c2nc3c(C)n[nH]c(=O)c3[nH]2)c1", "Potency": "inconclusive [inhibitor, single point]"},
      {"smiles": "CCOC(=O)C1CCN(C(=O)c2cc3cc(Cl)ccc3[nH]2)CC1", "Potency": "inconclusive [inhibitor, partial curve]"},
      {"smiles": "Cc1ccc(CNC(=O)CSc2nc3ccsc3c(=O)n2-c2ccc(Br)cc2)cc1", "Potency": "inconclusive [inhibitor, partial curve]"},
      {"smiles": "Cc1nc(C)c(-c2ccc(SCC(=O)Nc3cccc(C)c3C)nn2)s1", "Potency": "active: 16.4 µM"},
      {"smiles": "C[C@@H](C(=O)Nc1nc(-c2ccccn2)cs1)N1C(=O)C2CCCCC2C1=O", "note": "(stereo not given in full)", "Potency": "inconclusive [inhibitor, single point]"},
      {"smiles": "COc1ccc(OC)c(NC(=O)Nc2nnc(N3CCC(C)CC3)s2)c1", "Potency": "inconclusive [inhibitor, single point]"},
      {"smiles": "Cc1ccc(C(Sc2ccccc2)C(Cn2cncn2)C(=O)c2ccccc2)cc1", "note": "(stereo not given)", "Potency": "inconclusive [inhibitor, single point]"},
      {"smiles": "COc1cccc(CNC(=O)COc2cc(O)c3c(c2)OC(C)(C)CC3=O)c1", "Potency": "inconclusive [inhibitor, single point]"},
      {"smiles": "CCOc1cc(CNC(=O)Cn2ncn3c(cc4cc(F)ccc43)c2=O)cc(OCC)c1OCC", "Potency": "inactive"},
      {"smiles": "CCc1ccc(NC(=O)C2CCN(S(=O)(=O)c3cccc(-c4noc(C)n4)c3)CC2)cc1", "Potency": "active: 20.6 µM"},
      {"smiles": "CCN(CC)S(=O)(=O)c1cc(C)c(C)cc1OCC(=O)NC1CCCC1", "Potency": "active: 14.6 µM"},
      {"smiles": "COc1ccc(-c2ccnc(-n3ncc(C(=O)NCc4ccon4)c3C3CC3)n2)cc1F", "Potency": "inconclusive [inhibitor, single point]"},
      {"smiles": "Cc1ccc(Cn2c(CNC(=O)c3ccc(Cl)c([N+](=O)[O-])c3)nc3cccnc32)cc1", "Potency": "inconclusive [inhibitor, single point]"},
      {"smiles": "CCCCOC(=O)C[N+](C)(C)CCOC1CC2CCC1(C)C2(C)C", "note": "(stereo not given)", "Potency": "active: 2.06 µM"},
      {"smiles": "CCOc1ccc(S(=O)(=O)Nc2cc(Cl)ccc2O)cc1", "Potency": "inconclusive [inhibitor, single point]"},
      {"smiles": "O=C(NCc1ccccc1)c1csc2c1CCCC2", "Potency": "inconclusive [inhibitor, single point]"},
      {"smiles": "CCN(c1ccccc1)S(=O)(=O)c1ccc(Cl)c(NC(=O)CN2C(=O)NC3(CCCC3)C2=O)c1", "Potency": "inconclusive [inhibitor, single point]"},
      {"smiles": "O=C(CCN1C(=O)/C(=C/c2ccccc2Cl)SC1=S)NNC(=O)c1ccccc1O", "Potency": "inconclusive [inhibitor, single point]"},
      {"smiles": "O=C(OCC(=O)N1CCC(Cc2ccccc2)CC1)c1ccc(O)cc1", "Potency": "inconclusive [inhibitor, single point]"},
      {"smiles": "CCOc1ccc(C2C(C#N)=C(C)NC3=C2C(=O)c2ccccc23)cc1", "note": "(stereo not given)", "Potency": "active: 20.6 µM"},
      {"smiles": "Cc1noc(C)c1S(=O)(=O)N(CC(=O)NCCc1ccc(Cl)cc1)c1ccc(C(C)C)cc1", "Potency": "inconclusive [inhibitor, partial curve]"},
      {"smiles": "CN1C(=O)C(O)(CC(=O)/C=C/c2ccco2)c2cc(Br)ccc21", "note": "(stereo not given)", "Potency": "active: 6.51 µM"}
    ]}
  ]
}
